Experimental data from PubChem BioAssay AID488969 (Vanderbilt High Throughput Screening Facility, 2010).
Values joined by “and” are separate entries in the source; they are usually repeats but may differ in a detail not shown here. Identical values can stand only once. Whole data set: some 110,000 compounds, median “z-score” near -0.1, cut for the highest 2% near 2. This is one part of the list.

target: Metabotropic glutamate receptor 8 (Rattus norvegicus) (UniProt P70579); assay: mGluR8 Gi/Go-coupled signaling modulation – cell-based, rat, thallium flux, HTS, primary screen (AID 488969); conditions: HEK293 rat mGluR8, GIRK (G protein-gated inwardly rectifying potassium channel) thallium flux, FluoZin2; at 10 µM; stronger effect = higher value; submaximal glutamate (EC20) added with thallium
Chain of UniProt P70579 (P70579 whole entry, looked up): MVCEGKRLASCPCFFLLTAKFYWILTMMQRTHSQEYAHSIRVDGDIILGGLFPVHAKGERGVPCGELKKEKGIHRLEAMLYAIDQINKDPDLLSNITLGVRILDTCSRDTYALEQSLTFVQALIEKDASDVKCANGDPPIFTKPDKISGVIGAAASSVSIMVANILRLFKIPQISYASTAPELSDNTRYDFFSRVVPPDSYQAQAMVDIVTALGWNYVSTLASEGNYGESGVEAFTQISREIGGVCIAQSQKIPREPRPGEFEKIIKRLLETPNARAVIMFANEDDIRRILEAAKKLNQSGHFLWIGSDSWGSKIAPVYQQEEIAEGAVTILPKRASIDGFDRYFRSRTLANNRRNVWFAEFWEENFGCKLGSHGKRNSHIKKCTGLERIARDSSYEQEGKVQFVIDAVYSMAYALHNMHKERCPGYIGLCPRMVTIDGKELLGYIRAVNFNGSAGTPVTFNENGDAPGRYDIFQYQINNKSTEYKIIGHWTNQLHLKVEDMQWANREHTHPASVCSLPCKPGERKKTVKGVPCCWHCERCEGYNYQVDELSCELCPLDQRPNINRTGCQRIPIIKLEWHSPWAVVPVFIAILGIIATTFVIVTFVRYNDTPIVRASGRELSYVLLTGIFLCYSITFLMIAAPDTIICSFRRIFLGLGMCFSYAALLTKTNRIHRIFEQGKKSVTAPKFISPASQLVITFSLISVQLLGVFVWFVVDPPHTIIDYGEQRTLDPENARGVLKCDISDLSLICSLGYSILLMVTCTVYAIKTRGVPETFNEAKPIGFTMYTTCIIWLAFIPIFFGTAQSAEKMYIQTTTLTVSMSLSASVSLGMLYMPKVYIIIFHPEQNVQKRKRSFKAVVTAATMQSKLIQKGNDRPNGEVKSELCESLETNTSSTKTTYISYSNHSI

Structure (SMILES) | z-score
O=c1[nH]c2ccccc2nc1C(Cl)c1ccccc1 (configuration not stated) | 0.0661
CCCOc1cc(C)c(S(=O)(=O)N2CCOCC2)cc1C | -0.463
N#Cc1ccccc1NC(=O)CNc1ccc(Cl)c(C(F)(F)F)c1 | 2.38
COc1ccc(C)cc1NC(=O)CC(O)(C(F)(F)F)C(F)(F)F | 0.00381
O=S(=O)(NCCSc1ccccc1)c1ccc(F)cc1 | -0.368
CCOC(=O)c1ccc(NC(=O)N2CCc3ccccc32)cc1 | -0.768
COc1ccc(C2C(C(C)=O)=C(C)N=c3s/c(=C/c4ccc5c(c4)OCO5)c(=O)n32)cc1 (configuration not stated) | 0.276
CCCCSc1nnc(-c2ccc(OC)cc2)n1C | 0.16
CCCSc1nnc(NC(=O)c2sc3nc(-c4cccs4)ccc3c2N)s1 | -0.693
CCn1c(COc2ccc(Cl)cc2)nnc1SCc1nc2ccccc2[nH]1 | -0.159
COc1cccc(C2NC(=O)c3sc(=S)n(-c4ccccc4)c3N2)c1 (configuration not stated) | 1
O=C(O)CC(c1ccccc1)n1cccc1 (configuration not stated) | -0.0906
Cn1c(=O)cc(OCCCC(=O)NC2CCCC2)c2ccccc21 | -0.132
O=[N+]([O-])c1ccc(N2CCOCC2)cc1NCc1ccccc1 | -0.256
O=C(c1ccc(CN2CCOCC2)cc1)N1CCC(Cc2ccccc2)CC1 | 0.0361
COc1ccc([N+](=O)[O-])cc1NC(=O)C(C)N(C)Cc1cccc(OC)c1OC (configuration not stated) | -0.728
NS(=O)(=O)c1ccc(NC(=S)Nc2ccc(F)c(F)c2)cc1 | 0.0489
O=C(O)CSc1nnc(Cc2ccccc2)n1Cc1ccccc1 | 0.689
COc1ccc(-c2nnc(SC(C(=O)c3c[nH]c4ccccc34)c3ccccc3)n2N)cc1OC (configuration not stated) | -0.204

Structure (SMILES) | z-score
CSc1ccccc1-n1nnnc1SCc1ccccc1 | -0.676
Cc1cccc2cc(C#N)c(NCCNC(=S)NCCCN3CCOCC3)nc12 | 0.368
CCOc1ccccc1OC(=O)c1ccco1 | 0.242
COCCNC(=O)CN1CCC(NC(=O)C(C)(C)C)CC1 | 0.0135
O=C(NCCCNc1ccc(C(F)(F)F)cc1[N+](=O)[O-])c1ccc(Cl)cc1 | -0.166
O=C(Nc1ccc2c(c1)oc1ccccc12)c1ccc(Br)o1 | -0.605
CC12CN3CC(C)(CN(C1)C3c1ccc(Cl)cc1Cl)C2=O (configuration not stated) | 0.0767
Cc1ccc(C2Nc3ccccc3-c3nc4ccccc4n32)o1 (configuration not stated) | -1.64
Cc1cc(C)c2c(N)c(C(=O)N3CCN(c4ncccn4)CC3)sc2n1 | 0.00856
O=C(Nc1cccnc1)c1cc(-c2ccc(Br)cc2)on1 | -1.57
O=c1cccccc1NCc1ccccc1 | -0.106
O=C(NCc1ccncc1)Nc1ccc(F)cc1 | 0.337
Cc1cccc2cc(C#N)c(N3CCN(C)CC3)nc12 | -0.388
Cc1ccc(NC(=O)C2CCCN(S(=O)(=O)c3c(C)noc3C)C2)nc1 (configuration not stated) | -0.0938
CC(C)(C)c1nc(C(C)(C)C)c(Br)c(=O)[nH]1 | 0.318
CCCCN(C(=N)N1CCCCC1)c1nc(C)c([N+](=O)[O-])c(=O)[nH]1 | -0.205
CC(=O)/C(=C/N(C)C)Sc1ccc(C)cc1 | -0.0821
Nc1ccc2nc(-c3cccs3)[nH]c2c1 | -0.935
CC1CC(C)CN(S(=O)(=O)c2cccc(C(=O)N3C(=O)c4cccc(N)c4C3=O)c2)C1 (configuration not stated) | -0.133

Structure (SMILES) | z-score
O=C(OCC(=O)N1CCN(c2ccccc2)CC1)C1=COCCO1 | -0.0336
O=C(Nc1ccc(N2CCN(C(=O)c3ccccc3)CC2)c(Cl)c1)c1ccc(Br)o1 | -0.134
C=CCC1(C#N)C(SC)=NC2=C(C(=O)CC(C)(C)C2)C1c1ccc(Br)cc1 (configuration not stated) | 0.236
Cc1sc(NC(=O)c2cc(-c3ccccc3)nc3ccccc23)c(C(N)=O)c1C | -0.081
CCOn1c(=O)c(=O)n(OCc2ccccc2)c2ccccc21 | -0.158
S=C(Nc1ccccc1)N1CCN(C2CCCCC2)CC1 | -0.324
CCCCN1CC(O)=C(c2nc(-c3ccc(Cl)cc3)cs2)C1=N | -0.145
Cc1ccc(Cl)cc1NC(=O)COC(=O)C12CC3CC(CC(C3)C1)C2 | 0.107 and -0.194
CC(C)N(C(=O)C(F)(F)F)C(C(=O)NC1CCCCC1)c1ccncc1 (configuration not stated) | 0.311
COc1ccccc1N1CC(C(=O)OCC(=O)c2ccc(F)cc2)CC1=O (configuration not stated) | -0.372
COC(=O)c1nn(-c2ccc3c(c2)CCN3C(C)=O)cc1O | -0.0858
COC(=O)c1c(CSc2ccc(C)c(C)c2)noc1C(=O)NCc1ccc(OC)cc1 | -0.148
Cc1cccc(NC(=O)CSc2nc(-c3ccccc3)c(C#N)c(=O)[nH]2)c1C | -0.322
CCC(C(=O)NCc1ccc(OC)cc1)n1nc(C)n2c(cc3occc32)c1=O (configuration not stated) | 0.243
O=C(c1cccs1)N(C(=O)c1cccs1)c1ccc(Br)cn1 | 2.26
CC1C(=O)CCCCCCCCCC2C1(N1CCOCC1)CS2(=O)=O (configuration not stated) | 0.133
N#CCSc1nnc2sc3ccccc3n12 | -0.0636
CCCC(=O)Nc1ccc(C(=O)NN=C(C2CC2)C2CC2)cc1 | -0.291
CCn1c(=O)c([N+](=O)[O-])c(NCC(O)c2ccccc2)c2ccccc21 (configuration not stated) | -0.241
